About 150 (0.041%) of roughly 370,000 compounds were called active. Inconclusive means that the source gave no clear call. Such entries were picked first, then a sample of the others. Calls follow the shape of the dose curve; as a rule, active = well fitted inhibition curve with a large enough effect; inconclusive = small, poorly fitted or top-dose-only effect; inactive = flat fitted curve, though single readings scatter. Potencies of inconclusive entries are left out as doubtful fits.
The molecules below were run against Beta-lactamase (Escherichia coli (strain K12)) (UniProt P00811) (assay: qHTS Inhibitors of AmpC Beta-Lactamase (assay with detergent)). Conditions: AmpC hydrolysis of nitrocefin, absorbance 480 nm, 0.01% Triton; activity change, negative = inhibition: at 114 µM (top of the series).
Summary of the method: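 AmpC (5.3 nM in the dispensed reagent) in 20 mM phosphate pH 7.0 with 0.01% (detergent screen) or 0.0001% Triton X-100 was preincubated with compounds for 15 min at room temperature. Nitrocefin was then added from an 800 uM solution, and hydrolysis was followed at 480 nm.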
Also: nearly all actives have a fitted effect of over 25% in size.
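For activity change, negative = inhibition in this document: 0% = no-compound wells and -100% = no-enzyme wells.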
Potency is read from the fitted curve at half-maximal effect; tags tell the direction and shape of the fitted curve.

UniProt P00811, sequence (P00811 whole entry, looked up): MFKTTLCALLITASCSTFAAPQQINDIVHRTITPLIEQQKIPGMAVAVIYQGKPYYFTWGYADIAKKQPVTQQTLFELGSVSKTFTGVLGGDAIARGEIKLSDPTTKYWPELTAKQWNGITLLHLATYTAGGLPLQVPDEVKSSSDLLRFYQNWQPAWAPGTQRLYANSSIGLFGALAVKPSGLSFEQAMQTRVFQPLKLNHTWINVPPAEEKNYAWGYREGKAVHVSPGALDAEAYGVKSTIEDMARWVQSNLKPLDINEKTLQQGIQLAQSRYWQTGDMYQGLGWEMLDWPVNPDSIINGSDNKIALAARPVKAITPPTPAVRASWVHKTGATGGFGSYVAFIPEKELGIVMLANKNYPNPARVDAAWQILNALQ

Structure (SMILES)	Potency	activity change, negative = inhibition
N[C@@H](Cc1ccccc1)c1nnc2sc(SCc3ccccc3)nn12	inconclusive [inhibitor, single point]	
Cc1cc(C(=O)NC2CCCc3c2cnn3-c2cccc(C)c2C)no1 (stereo unspecified)	inconclusive [inhibitor, full curve]	
Cc1[nH]c2ccccc2c1/C=C/c1cc[n+](C)cc1	inconclusive [inhibitor, partial curve, poor fit]	
O=C(c1cccc([N+](=O)[O-])c1)n1nc(-c2ccccc2)nc1NCc1ccccc1		inactive: -13.8%
CC(=O)Nc1ccc(S(=O)(=O)NCC(=O)N2CCN(S(=O)(=O)c3cccs3)CC2)cc1	inconclusive [inhibitor, full curve]	
CCOC(=O)CSc1ncc(OC)c(=O)[nH]1		inactive: 3.21%
Cc1cc(C(F)(F)F)n2nc(-c3cnn(C)c3C(F)(F)F)c(Br)c2n1	inconclusive [inhibitor, single point]	
COCCCNCCCOc1ccc(Cl)cc1Br		inactive: -0.632%
O=C(CSCc1ccco1)c1ccc(Cl)s1	inconclusive [inhibitor, single point]	
CCOCC(=O)Nc1ccc2c(c1)OCCO2	inconclusive [inhibitor, full curve]	
Cc1ccccc1Cn1c(C(C)O)nc2ccccc21 (stereo unspecified)	inconclusive [inhibitor, full curve, poor fit]	
O=C(COC(=O)/C=C/c1cccc(C(F)(F)F)c1)NC(=O)NC1CCCC1	inconclusive [inhibitor, partial curve, poor fit]	
COc1ccccc1-n1cnc2cc(C(=O)NC3CCCC3)ccc21	inconclusive [inhibitor, partial curve, poor fit]	
CCOc1ccc(-c2c(C(=O)N/N=C(\C)c3ccco3)nnn2-c2nonc2N)cc1	inconclusive [inhibitor, partial curve, poor fit]	
Cc1ccc(C(=O)NCCC2=CCCCC2)cc1S(=O)(=O)N1CCOCC1	inconclusive [inhibitor, single point]	
Cc1ccc(-n2nc(-c3cccnc3)cc2C(=O)N2CCOCC2)c(C)c1		inactive: 1.58%
Fc1ccccc1/C=C/c1ccc2ccccc2n1	inconclusive [inhibitor, full curve, poor fit]	
O=C(CCCn1c(=O)[nH]c2cc(Cl)ccc2c1=O)NCC1CCCO1 (stereo unspecified)	inconclusive [inhibitor, partial curve, poor fit]	
COC(=O)Cc1c(O)ccn(CCc2ccc(S(N)(=O)=O)cc2)c1=O		inactive: 5.73%
CCN1C(=O)[C@@H]2[C@@H](c3ccc(SC4CCCCC4)c(OC)c3)N3CCC[C@@]3(C(=O)OC)[C@@H]2C1=O		inactive: -3.66%
CCCC(=O)NC(c1ccc2c(c1)OCO2)c1cc(Cl)c2cccnc2c1O (stereo unspecified)	inconclusive [inhibitor, full curve, poor fit]	
Cc1ccc(C(=O)Nc2nnc(Cc3ccccc3)s2)cc1		inactive: -0.519%

Structure (SMILES)	Potency	activity change, negative = inhibition
CCc1cc(=O)oc2cc(C)cc(OCC(=O)N[C@@H](CSCc3ccccc3)C(=O)O)c12	inconclusive [inhibitor, partial curve, poor fit]	
OC(CNCc1ccccc1Cl)C(F)(F)F (stereo unspecified)	inconclusive [inhibitor, full curve, poor fit]	
O=C(Cc1ccccc1)Nc1nccs1	inconclusive [inhibitor, partial curve, poor fit]	
CC(C)[C@H](N)C(=O)OCCOCn1cnc2c(=O)[nH]c(N)nc21	inconclusive [inhibitor, full curve, poor fit]	
CCN1/C(=C2\C(=O)N(C)C(=S)N2C)C=Cc2ccccc21		inactive: 0.0569%
COc1ccc(Br)cc1/C=N/n1c(C)nnc1C	inconclusive [inhibitor, full curve, poor fit]	
CCC(=O)Nc1ccc(C(=O)Nc2cccc(OC)c2)cc1	inconclusive [inhibitor, full curve, poor fit]	
Cc1cc(NC(=O)CSc2nnc(Cc3ccccc3)n2C)no1		inactive: 0.234%
COCCCN1C(=O)c2ccc(C(=O)Nc3ccccc3OC)cc2C1=O		inactive: -6.66%
Cc1ccc(CNC(=S)NC2CCCCC2)cc1	inconclusive [inhibitor, partial curve]	
CC1(C)CC(=O)C(N=Nc2ccc(-c3ccccc3)cc2)=C(O)C1	inconclusive [inhibitor, single point]	
Cc1ccc(S(=O)(=O)N2CCCc3ccccc32)cc1C	inconclusive [inhibitor, full curve]	
Cc1cc(NCCC(C)C)n2nc(C)c(-c3ccccc3)c2n1		inactive: 1.5%
CCN(C(=O)CN1C(=O)/C(=C/c2ccccc2F)SC1=S)C1CCS(=O)(=O)C1 (stereo unspecified)	inconclusive [inhibitor, full curve, poor fit]	
COc1cnc(-c2ccccn2)nc1Sc1ccc(Cl)cc1		inactive: -2.73%
Cc1cc(C)c2cc(C(c3nnnn3CC3CCCO3)N3CCN4CCCC4C3)c(=O)[nH]c2c1 (stereo unspecified)	inconclusive [inhibitor, full curve, poor fit]	
COc1ccc(Nc2cc(Sc3ccc(OC)cc3)ncn2)cc1	inconclusive [inhibitor, partial curve, poor fit]	
CCOC(=O)C1=C(C)NC(=O)NC1c1ccc(N(CC)CC)cc1 (stereo unspecified)		inactive: -5.69%
Cc1ccc(N=Cc2c(O)[nH]c3ccccc23)c([N+](=O)[O-])c1	inconclusive [inhibitor, full curve, poor fit]	
CCc1ccc(CNC(=O)C2CCCN(S(=O)(=O)N(CC)c3ccccc3)C2)cc1 (stereo unspecified)	inconclusive [inhibitor, full curve, poor fit]	
CCOC(=O)c1ccc(N2C(=O)c3n[nH]c(-c4cccs4)c3C2c2cccc(F)c2)cc1 (stereo unspecified)	inconclusive [inhibitor, full curve, poor fit]	
N#Cc1ccc2c(c1)C[C@]1(CCCCN3C(=O)c4ccccc4C3=O)Oc3c(c(=O)oc4ccccc34)C2O1	inconclusive [inhibitor, partial curve]	

Structure (SMILES)	Potency	activity change, negative = inhibition
O=C(NC1CCCCC1)c1ccccc1NC(=S)NC(=O)C1CC1	inconclusive [inhibitor, partial curve]	
COc1ccc(Cl)cc1NC(=O)c1cnc2n(c1=O)CCS2	inconclusive [inhibitor, partial curve]	
Cc1nn(CC(=O)NCc2cc3ccccc3[nH]2)c(C)c1[N+](=O)[O-]	inconclusive [inhibitor, single point]	
COc1ccc(C(=O)COC(=O)c2n[nH]c3ccccc23)c(OC)c1	inconclusive [inhibitor, single point]	
CCCN(CC(=O)Nc1c(C)cccc1CC)C(=O)SCC	inconclusive [inhibitor, full curve, poor fit]	
O=C(C1CC1)N1CCN=C1SCc1ccccc1	inconclusive [inhibitor, partial curve, poor fit]	
CN(C)c1ccc(C(CNC(=O)c2ccc(F)cc2)c2c[nH]c3ccccc23)cc1 (stereo unspecified)	inconclusive [inhibitor, full curve, poor fit]	
CC(O)CNc1nc2ccccc2n1-c1ncnc2sc3c(c12)CCC3 (stereo unspecified)	inconclusive [inhibitor, partial curve, poor fit]	
C[N+](C)(CC#Cc1ccccc1)CC(=O)c1ccccc1	inconclusive [inhibitor, partial curve]	
CC(=O)Nc1nc(-c2ccccc2)c(-c2ccccc2)o1	inconclusive [inhibitor, partial curve, poor fit]	
CCCCNC(=O)c1cc([N+](=O)[O-])[nH]n1	inconclusive [inhibitor, partial curve]	
Cc1ccc(SC(C)C(=O)NC2CC2)cc1 (stereo unspecified)	inconclusive [inhibitor, partial curve]	
COc1cccc(CNC(=O)COC(=O)C2CC3CCCC(C2)C3=O)c1 (stereo unspecified)		inactive: -9.4%
O=C(Nc1cccc(S(=O)(=O)N2CCCC2)c1)c1cc(S(=O)(=O)N2CCOCC2)ccc1F		inactive: -1.43%
O=C(COc1coc(CN2CCN(c3ccccc3)CC2)cc1=O)Nc1ccc(F)cc1		inactive: 0%
Cc1cc2nc(C3CCCN(C(=S)Nc4ccccc4C)C3)[nH]c2cc1C (stereo unspecified)		inactive: -8.52%
CS(=O)(=O)c1ccccc1-c1nnc(NC(=O)CCS(=O)(=O)c2ccc(Cl)cc2)o1	inconclusive [inhibitor, full curve, poor fit]	
Cc1cc(-c2nnc3sc(C4CCCCC4)nn23)n[nH]1	inconclusive [inhibitor, full curve, poor fit]	
CCOc1ccc(/C=N/NC(=O)c2cc3ccccc3cc2OC)cc1	inconclusive [inhibitor, partial curve, poor fit]	
CN1C(=O)N(C)C2C1N(C)S(=O)(=O)N2C (stereo unspecified)	inconclusive [inhibitor, partial curve]	
Cc1ccc2nc(Cl)c(C3CC(c4cccs4)=NN3S(C)(=O)=O)cc2c1 (stereo unspecified)	inconclusive [inhibitor, full curve, poor fit]	
O=c1cc(O)c2c(=O)[nH]c(=O)n(-c3ccccc3)c2[nH]1	inconclusive [inhibitor, partial curve]	

— PubChem BioAssay AID485294 (National Center for Advancing Translational Sciences (NCATS), 2010)
